Assay results reported in PubChem BioAssay AID1768 (National Center for Advancing Translational Sciences (NCATS), 2009).
Hit rate of the full screen: of about 270,000 compounds, about 620 (0.23%) were called active. This list was built around the results that the source calls inconclusive (neither active nor inactive); the mix of calls is not that of the screen. The call rests on the fitted dose curve; in most records, active means well fitted inhibition curve with a large enough effect in the polarisation, with a control signal flat (not every such curve was filed as active); inconclusive means small, poorly fitted or top-dose-only effect, or effect the other way, or a change in a side signal; inactive means no such curve, though single readings can be large or run the other way; the % refers to the polarisation. Potencies beside an inconclusive call are fits to weak or partial responses and may not hold up. A note “side channel” means that the fit belongs to a control or component signal, not to the main read-out.

Target: Menin (Homo sapiens) (UniProt O00255)
Experiment: qHTS Assay for Inhibitors Targeting the Menin-MLL Interaction in MLL Related Leukemias: Competition With Texas Red Labeled MLL-derived Mutant Peptide
Settings: fluorescence polarization; series mostly up to 61.6 µM
Potency means the concentration at half of the fitted maximal effect; tags describe the fitted curve by direction and shape or compound fluorescence and quenching.

Sequence of UniProt O00255 (O00255 whole entry, looked up): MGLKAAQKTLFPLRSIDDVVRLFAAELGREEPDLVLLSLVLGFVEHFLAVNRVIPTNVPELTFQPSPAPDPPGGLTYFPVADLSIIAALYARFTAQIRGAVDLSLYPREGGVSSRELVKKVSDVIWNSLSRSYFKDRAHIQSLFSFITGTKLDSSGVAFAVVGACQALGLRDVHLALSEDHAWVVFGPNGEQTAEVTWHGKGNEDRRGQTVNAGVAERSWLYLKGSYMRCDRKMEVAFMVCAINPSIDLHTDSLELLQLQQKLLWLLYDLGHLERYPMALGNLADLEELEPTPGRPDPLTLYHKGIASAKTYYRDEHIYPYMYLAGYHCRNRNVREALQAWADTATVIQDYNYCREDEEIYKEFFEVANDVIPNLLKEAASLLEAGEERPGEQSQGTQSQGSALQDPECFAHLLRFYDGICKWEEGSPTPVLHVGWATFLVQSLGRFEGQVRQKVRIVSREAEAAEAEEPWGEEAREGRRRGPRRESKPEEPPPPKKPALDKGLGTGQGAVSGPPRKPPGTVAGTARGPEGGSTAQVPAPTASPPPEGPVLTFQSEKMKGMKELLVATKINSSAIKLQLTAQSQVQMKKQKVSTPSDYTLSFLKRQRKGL

Potency, inconclusive:
COc1ccc(N2CCCn3c2nc2c3c(=O)n(Cc3ccc(C)cc3)c(=O)n2C)c(OC)c1 17.8 µM [fluorescent, side channel, partial curve]
O=C(COc1ccc(OCc2ccccc2)cc1)NN=C1CCCC1 17.8 µM [fluorescent, side channel, partial curve]
COc1ccc(C(=O)Nc2ccc(Nc3ccccc3)cc2)cc1[N+](=O)[O-] 14.1 µM [quencher, side channel, partial curve]
COc1cc(NS(=O)(=O)c2ccc(NC(=O)/C=C/c3ccc([N+](=O)[O-])cc3)cc2)ncn1 14.1 µM [quencher, side channel, partial curve]
Cc1ccc(S(=O)(=O)N2CCN(CCc3ccccc3)CC2)c(C)c1 39.8 µM [fluorescent, side channel, single point]
C/C(=N\NC(=O)CNc1cccc2ccccc12)c1ccccc1 28.2 µM [quencher, side channel, single point]
CC1CCN(CCCC(=O)c2ccc(F)cc2)CC1 44.7 µM [inhibitor, partial curve]
CCOC(=O)N1CCN(C(=O)c2cnn3c(C(F)F)cc(-c4ccc(C)cc4)nc23)CC1 39.8 µM [inhibitor, single point]
O=C(NCc1ccco1)c1sc(=S)n2c1[nH]c(=O)c1ccccc12 28.2 µM [quencher, side channel, partial curve]
COC(=O)c1c(C)oc2ccc(N(C(=O)Oc3ccccc3)S(=O)(=O)c3ccccc3)cc12 4.47 µM [inhibitor, full curve, poor fit]
Cc1ccccc1N1CCN(S(=O)(=O)c2nnc(NC(=O)c3ccco3)s2)CC1 15.8 µM [quencher, side channel, partial curve]
O=C(Nc1cccc(S(=O)(=O)N2CCCCC2)c1)c1ccc(S(=O)(=O)C(F)F)cc1 10 µM [quencher, side channel, partial curve]
Cc1ccc(NC(=S)N(Cc2cccs2)Cc2cc3cccc(C)c3[nH]c2=O)cc1 35.5 µM [inhibitor, single point]
CC(NC(=O)CC1Sc2ccccc2NC1=O)c1ccccc1 (stereo not drawn) 2.24 µM [fluorescent, side channel, full curve]
CCOC(=O)C1(Cc2ccc(Cl)cc2)CCN(C(=O)c2cscn2)CC1 3.16 µM [fluorescent, side channel, full curve]
Cc1ccc(CNC(=O)COc2ccc(C(=O)c3ccc(F)cc3)cc2)cc1 20 µM [fluorescent, side channel, partial curve, poor fit]
Cc1cc(C)c(C(=O)N2CCCC(N3CCN(c4cccc(C(F)(F)F)c4)CC3)C2)o1 (stereo not drawn) 1.12 µM [fluorescent, side channel, full curve, poor fit]
O=C(Nc1cnn(Cc2ccc(Cl)cc2)c1)c1ccc([N+](=O)[O-])cc1 12.6 µM [quencher, side channel, partial curve]
Cc1nc2ccccc2c2oc(C(=O)N3CCCC(C)C3)cc12 (stereo not drawn) 28.2 µM [inhibitor, single point]
CCOc1ccc(C2C(C(=O)c3ccc(C)o3)=C(O)C(=O)N2c2nc(C)c(C(=O)OC)s2)cc1 (stereo not drawn) 8.91 µM [quencher, side channel, single point]
CC(C)CC(COCc1cccc(C(F)(F)F)c1)N1CCN(C(=O)c2cccc(C(F)(F)F)c2)CCC1=O (stereo not drawn) 3.16 µM [fluorescent, side channel, full curve, poor fit]
CC(NC(=O)C(=O)N/N=C/c1ccccc1)c1ccccc1 (stereo not drawn) 39.8 µM [fluorescent, side channel, single point]
O=S(=O)(NC(=S)NC1CCCCC1)c1ccc(Cl)cc1 15.8 µM [quencher, side channel, partial curve]
COc1ccc(Nc2nc3ccccc3s2)cc1 5.01 µM [quencher, side channel, full curve]
CCn1c(/C=C/Nc2ccccc2)[n+](CC)c2cc(Cl)c(Cl)cc21 25.1 µM [inhibitor, single point]
Cc1ccc(-c2cc(=O)c3ccc(F)cc3[nH]2)cc1 39.8 µM [inhibitor, single point]
COc1ccc(NC(=O)c2cc(-c3ccco3)on2)cc1 17.8 µM [quencher, side channel, single point]
O=C(Nc1ncc([N+](=O)[O-])s1)c1ccc2c(c1)OCO2 28.2 µM [quencher, side channel, partial curve]
O=C(N/N=C/c1ccc(O)cc1)/C(=C/c1ccc([N+](=O)[O-])cc1)NC(=O)c1ccccc1 28.2 µM [quencher, side channel, partial curve]
O=C(CN1CCc2ccccc21)Nc1ccc2c(c1)OCO2 22.4 µM [quencher, side channel, partial curve]
O=C(c1ccccc1)[C@H]1[C@H](c2ccccc2)[C@@]2(N=C(c3ccccc3)OC2=O)C2c3ccccc3C=NN21 (stereo partly drawn) 39.8 µM [inhibitor, single point]
CCCCN(C)CCNC(=O)c1cc2cc3ccc(OC)cc3nc2o1 15.8 µM [inhibitor, partial curve, poor fit]
COc1cc(NC(=O)c2ccccc2)c(OC)cc1NC(=O)Cc1ccc(Br)cc1 35.5 µM [quencher, single point]
COc1ccc(NC(=O)Cc2nnc(SCC(=O)NC3CCCC3)n2C)cc1 39.8 µM [inhibitor, single point]
CC12CCCC[C@@H]1CCC1C2CCC2(C)C1CC[C@@]2(O)CNCCO (stereo partly drawn) 17.8 µM [fluorescent, side channel, partial curve]
Cc1sc2nc(SCC(=O)Nc3ccc(S(N)(=O)=O)cc3)[nH]c(=O)c2c1C 31.6 µM [inhibitor, single point]
O=c1c(Cc2ccccc2)c(O)ccn1CCc1cnc[nH]1 0.708 µM [inhibitor, full curve, poor fit]
CCOC(=O)C(C)On1c(-c2cccc(Cl)c2)nc2ccc([N+](=O)[O-])cc21 (stereo not drawn) 17.8 µM [quencher, side channel, partial curve]
O=C1CCCc2cc3c(cc21)CC1(C3)Cc2cc3c(cc2C1)C(=O)CCC3 10 µM [fluorescent, side channel, partial curve]
COc1ccc(C)cc1NC(=O)c1nn(C)c(C(=O)Nc2cc(C)ccc2OC)c1[N+](=O)[O-] 28.2 µM [quencher, side channel, single point]
Cn1nnnc1SCCNCc1ccccc1OCc1ccccc1Cl 8.91 µM [inhibitor, full curve]
CCc1ccc(NC(=O)NCc2ccc3c(c2)OCO3)cc1 39.8 µM [inhibitor, single point]
C=CCn1c(=S)[nH]c2scc(-c3cccs3)c2c1=O 20 µM [quencher, side channel, partial curve]
Cc1nc(CNC(=O)CC2C(=O)NCCN2Cc2cccc(Oc3ccccc3)c2)cs1 (stereo not drawn) 2.51 µM [inhibitor, full curve, poor fit]
Cn1cc(S(=O)(=O)N2CCc3ccccc32)cc1C(=O)NC1CCCCC1 2.82 µM [inhibitor, full curve, poor fit]
[O-]/C(=C(\C(=S)Nc1cccc2ccccc12)[n+]1cccc(CO)c1)c1ccc(Cl)s1 14.1 µM [quencher, side channel, partial curve]
Cc1c(NC(=S)NC(=O)c2cccc(Cl)c2)c(=O)n(-c2ccccc2)n1C 39.8 µM [inhibitor, single point]
CC(C)(C)OC(=O)N1CCCN(C(=O)c2ccc(Cl)cc2)CC1 39.8 µM [fluorescent, side channel, single point]
Cc1ccc(Nc2nnc(SCC(=O)Nc3ccc(S(=O)(=O)N4CCOCC4)cc3)s2)cc1 12.6 µM [quencher, side channel, partial curve]

Potency, inactive:
O=C(O)c1ccccc1NS(=O)(=O)c1ccc2c(c1)OCCO2
Cc1cc(C)n2cc(CSc3nncn3C)nc2n1
N#C/C(=C\c1cccnc1)C(=O)Nc1cccc(Cl)c1
COc1ccc2cc3c(N)nn(C(=O)c4ccccc4[N+](=O)[O-])c3nc2c1
Cc1cccc(NC(=O)c2ccc(S(=O)(=O)C(F)F)cc2)c1C
Cc1nc(SCc2cccc(Oc3ccccc3)c2)n[nH]1
COC(=O)CSC1=NS(=O)(=O)c2ccccc21
COc1ccc(OC)c(NC(=O)c2cc(S(=O)(=O)N3CCCCC3)c[nH]2)c1
CC(=O)N(c1ccccc1C)C1CCCC1
